In patent US11629139B2 (priority 2017, dated 2023):

Settings: for Mouse plasma stability (% at 4 hours): % remained after four hours; for Plasma stability: Tables 9-10; for m-plasma stability: mouse plasma
Method: Plasma stability was evaluated by incubating 10 μM test compound with undiluted plasma at 37° C. with aliquots removed at multiple time points out to four hours. Aliquots were added to acetonitrile (5×, v:v) to stop any enzymatic activity and held on ice. Samples were centrifuged through a Millipore Multiscreen Solvinter 0.45 micron low binding PTFE hydrophilic filter plate and analyzed by LC-MS/MS.

[2H]C([2H])(c1cc(Cl)ccc1NCc1ccc(S(C)(=O)=O)cc1)N1CCN(C(=O)CNC(=O)C2CC23CCC(F)(F)CC3)CC1 (single isomer, unassigned; (-)) [(−)-1503]
Mouse plasma stability (% at 4 hours): 72%

[2H]C([2H])(c1cc(Cl)ccc1N)N1CCN(C(=O)CNC(=O)C2CC23CCC(F)(F)CC3)CC1 (stereo not shown) [Compound 1413, N-(2-(4-((2-amino-5-chlorophenyl)methyl-d2)piperazin-1-yl)-2-oxoethyl)-6,6-difluorospiro[2.5]octane-1-carboxamide]
Plasma stability: Plasma stability: Stable

CS(=O)(=O)c1ccc(COc2ccc(Cl)cc2CN2CCN(C(=O)CNC(=O)C3CC34CCC(F)(F)CC4)CC2)cc1 (single isomer, unassigned; (-)) [(−)-1476]
Mouse plasma stability (% at 4 hours): 69%

[2H]C([2H])(c1cc(Cl)ccc1N)N1CCN(C(=O)CNC(=O)CC2CCC(F)(F)CC2)CC1 [Compound 1412, N-(2-(4-((2-amino-5-chlorophenyl)methyl-d2)piperazin-1-yl)-2-oxoethyl)-2-(4,4-difluorocyclohexyl)acetamide]
Plasma stability: Plasma stability: Stable

CS(=O)(=O)c1ccc(CNc2ccc(Cl)cc2CN2CCN(C(=O)CNC(=O)CC3CCC(F)(F)CC3)CC2)cc1 [Compound 1477]
m-plasma stability: stable

CS(=O)(=O)c1ccc(CNc2ccc(Cl)cc2CN2CCN(C(=O)CNC(=O)C3CC34CCC(F)(F)CC4)CC2)cc1 (stereo not shown) [Compound 1478]
m-plasma stability: stable

CS(=O)(=O)c1ccc(COc2ccc(Cl)cc2CN2CCN(C(=O)CNC(=O)C3CC34CCC(F)(F)CC4)CC2)cc1 (stereo not shown) [Compound 1476]
m-plasma stability: stable
